Measured values reported in the supplement of paper PMC10369915.
This is one part of the list. No stated cut-off is given here; in the data, active = 3.2 or more and inactive = the rest. The signal is at background level for most entries.

What was measured:
Test in all cases: enrichment score (SH2-bound / input frequency) (ratio); bacterial display of known human phosphotyrosine sites (pTyr-Var adds point mutants) read by sequencing; higher = stronger binding; tyrosines were phosphorylated by kinases first
Conditions in all cases: peptide library: pTyr-Var
SHP2 C-SH2 domain E139D = molecular target: SHP2 C-SH2 domain E139D
[1] = molecular target: SHP2 C-SH2 domain wild-type
SHP2 N-SH2 domain L43F = molecular target: SHP2 N-SH2 domain L43F
SHP2 N-SH2 domain T42A = molecular target: SHP2 N-SH2 domain T42A
SHP2 N-SH2 domain T52S = molecular target: SHP2 N-SH2 domain T52S
[2] = molecular target: SHP2 N-SH2 domain wild-type

Measured: enrichment score
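Further: displayed peptides selected on beads carrying the immobilized SH2 domain, with library peptides lacking any tyrosine serving as negative controls.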

NDFGNYNNQSS [HNRNPA1_Y318]
inactive: SHP2 C-SH2 domain E139D 0.679 | [1] 0.656 | SHP2 N-SH2 domain L43F 0.716 | SHP2 N-SH2 domain T42A 0.51 | SHP2 N-SH2 domain T52S 0.593 | [2] 0.543

VERIHYIGQNE [HMOX2_Y140]
inactive: SHP2 C-SH2 domain E139D 1.09 | [1] 0.947 | SHP2 N-SH2 domain L43F 0.58 | SHP2 N-SH2 domain T42A 0.561 | SHP2 N-SH2 domain T52S 0.565 | [2] 1.15

LSIQCYLRASD [HMGCS2_Y262_L266S]
inactive: SHP2 C-SH2 domain E139D 0.927 | [1] 0.968 | SHP2 N-SH2 domain L43F 0.931 | SHP2 N-SH2 domain T42A 0.699 | SHP2 N-SH2 domain T52S 0.9 | [2] 1.18

DNEYAYLKAII [HNF4A_Y288]
inactive: SHP2 C-SH2 domain E139D 0.664 | [1] 0.75 | SHP2 N-SH2 domain L43F 0.596 | SHP2 N-SH2 domain T42A 0.72 | SHP2 N-SH2 domain T52S 0.635 | [2] 0.853

RKMSSYAFFVQ [HMGB1_Y16_G11R]
inactive: SHP2 C-SH2 domain E139D 3.2 | [1] 2.66 | SHP2 N-SH2 domain L43F 2.63 | SHP2 N-SH2 domain T42A 2.46 | SHP2 N-SH2 domain T52S 2.59 | [2] 2.79

QRPGPYDRPGA [HNRNPH2_Y210]
inactive: SHP2 C-SH2 domain E139D 0.72 | [1] 0.564 | SHP2 N-SH2 domain L43F 0.496 | SHP2 N-SH2 domain T42A 0.421 | SHP2 N-SH2 domain T52S 0.482 | [2] 0.562

QQPGPYDRPGA [HNRNPH2_Y210_R206Q]
inactive: SHP2 C-SH2 domain E139D 0.355 | [1] 0.431 | SHP2 N-SH2 domain L43F 0.394 | SHP2 N-SH2 domain T42A 0.309 | SHP2 N-SH2 domain T52S 0.298 | [2] 0.471

FSMGCYEFSLG [HMGCL_Y198_I200F_YF]
inactive: SHP2 C-SH2 domain E139D 0.811 | [1] 1.48 | SHP2 N-SH2 domain L43F 1.3 | SHP2 N-SH2 domain T42A 1.14 | SHP2 N-SH2 domain T52S 0.726 | [2] 1.97

IDDNQYAYLKA [HNF4A_Y286_E285Q]
inactive: SHP2 C-SH2 domain E139D 0.59 | [1] 0.62 | SHP2 N-SH2 domain L43F 0.754 | SHP2 N-SH2 domain T42A 0.609 | SHP2 N-SH2 domain T52S 0.671 | [2] 0.625

FGSGNYNDFGN [HNRNPA2B1_Y300_YF]
inactive: SHP2 C-SH2 domain E139D 0.669 | [1] 0.901 | SHP2 N-SH2 domain L43F 0.63 | SHP2 N-SH2 domain T42A 0.855 | SHP2 N-SH2 domain T52S 0.698 | [2] 1.2

DNEFAYLKAII [HNF4A_Y288_YF]
inactive: SHP2 C-SH2 domain E139D 0.438 | [1] 0.579 | SHP2 N-SH2 domain L43F 0.558 | SHP2 N-SH2 domain T42A 0.462 | SHP2 N-SH2 domain T52S 0.564 | [2] 0.74

IDDNEYAYLKA [HNF4A_Y286]
inactive: SHP2 C-SH2 domain E139D 0.478 | [1] 0.387 | SHP2 N-SH2 domain L43F 0.494 | SHP2 N-SH2 domain T42A 0.528 | SHP2 N-SH2 domain T52S 0.592 | [2] 0.536

DNQFAYLKAII [HNF4A_Y288_E285Q_YF]
inactive: SHP2 C-SH2 domain E139D 0.655 | [1] 0.621 | SHP2 N-SH2 domain L43F 0.618 | SHP2 N-SH2 domain T42A 0.682 | SHP2 N-SH2 domain T52S 0.693 | [2] 0.708

TRRSSYEDSSL [HNF4A_Y144]
inactive: SHP2 C-SH2 domain E139D 0.41 | [1] 0.328 | SHP2 N-SH2 domain L43F 0.41 | SHP2 N-SH2 domain T42A 0.364 | SHP2 N-SH2 domain T52S 0.341 | [2] 0.366

SMGHRYIEVFK [HNRNPF_Y82]
active: SHP2 N-SH2 domain T42A 4.05
inactive: SHP2 C-SH2 domain E139D 1.13 | [1] 1.78 | SHP2 N-SH2 domain L43F 2.68 | SHP2 N-SH2 domain T52S 3.08 | [2] 1.67

RSSGPYGGGGQ [HNRNPA1_Y341]
inactive: SHP2 C-SH2 domain E139D 0.462 | [1] 0.495 | SHP2 N-SH2 domain L43F 0.397 | SHP2 N-SH2 domain T42A 0.429 | SHP2 N-SH2 domain T52S 0.513 | [2] 0.513

LSIQCYLRALD [HMGCS2_Y262]
inactive: SHP2 C-SH2 domain E139D 2.75 | [1] 2.42 | SHP2 N-SH2 domain L43F 2.05 | SHP2 N-SH2 domain T42A 1.48 | SHP2 N-SH2 domain T52S 1.39 | [2] 3.02

GGGGSYNVFGN [HNRNPA1_Y312_D314V]
inactive: SHP2 C-SH2 domain E139D 0.876 | [1] 0.742 | SHP2 N-SH2 domain L43F 0.601 | SHP2 N-SH2 domain T42A 0.66 | SHP2 N-SH2 domain T52S 0.65 | [2] 0.708

IDDNEYAFLKA [HNF4A_Y286_YF]
inactive: SHP2 C-SH2 domain E139D 0.777 | [1] 0.587 | SHP2 N-SH2 domain L43F 0.578 | SHP2 N-SH2 domain T42A 0.535 | SHP2 N-SH2 domain T52S 0.613 | [2] 0.674
